System: wild-type influenza virus (A/Udorn/72)
Format: cell-based

## C1CCC2(CC1)CCN(C1=NCCN1)CC2 [BL-1743, 3-(4,5-Dihydro-1H-imidazol-2-yl)-3-aza-spiro[5.5]undecane, reference compound]
  concentration at which plaque formation was inhibited: 50 to 100 µM
